Experimental data as given in paper PMC4336329 (PLoS ONE, 2015).
The whole screen tested about 310,000 compounds, of which about 2,200 (0.71%) showed an effect of 50% or more. Effects have a minus sign here. The list shows a part of the results.

Target: human ether-à-go-go-related gene (hERG) potassium channel (human, UniProt Q12809)
Experiment: primary screen, population patch clamp on CHO cells stably expressing hERG

human ether-à-go-go-related gene (hERG) potassium channel, sequence (Q12809 whole entry, looked up): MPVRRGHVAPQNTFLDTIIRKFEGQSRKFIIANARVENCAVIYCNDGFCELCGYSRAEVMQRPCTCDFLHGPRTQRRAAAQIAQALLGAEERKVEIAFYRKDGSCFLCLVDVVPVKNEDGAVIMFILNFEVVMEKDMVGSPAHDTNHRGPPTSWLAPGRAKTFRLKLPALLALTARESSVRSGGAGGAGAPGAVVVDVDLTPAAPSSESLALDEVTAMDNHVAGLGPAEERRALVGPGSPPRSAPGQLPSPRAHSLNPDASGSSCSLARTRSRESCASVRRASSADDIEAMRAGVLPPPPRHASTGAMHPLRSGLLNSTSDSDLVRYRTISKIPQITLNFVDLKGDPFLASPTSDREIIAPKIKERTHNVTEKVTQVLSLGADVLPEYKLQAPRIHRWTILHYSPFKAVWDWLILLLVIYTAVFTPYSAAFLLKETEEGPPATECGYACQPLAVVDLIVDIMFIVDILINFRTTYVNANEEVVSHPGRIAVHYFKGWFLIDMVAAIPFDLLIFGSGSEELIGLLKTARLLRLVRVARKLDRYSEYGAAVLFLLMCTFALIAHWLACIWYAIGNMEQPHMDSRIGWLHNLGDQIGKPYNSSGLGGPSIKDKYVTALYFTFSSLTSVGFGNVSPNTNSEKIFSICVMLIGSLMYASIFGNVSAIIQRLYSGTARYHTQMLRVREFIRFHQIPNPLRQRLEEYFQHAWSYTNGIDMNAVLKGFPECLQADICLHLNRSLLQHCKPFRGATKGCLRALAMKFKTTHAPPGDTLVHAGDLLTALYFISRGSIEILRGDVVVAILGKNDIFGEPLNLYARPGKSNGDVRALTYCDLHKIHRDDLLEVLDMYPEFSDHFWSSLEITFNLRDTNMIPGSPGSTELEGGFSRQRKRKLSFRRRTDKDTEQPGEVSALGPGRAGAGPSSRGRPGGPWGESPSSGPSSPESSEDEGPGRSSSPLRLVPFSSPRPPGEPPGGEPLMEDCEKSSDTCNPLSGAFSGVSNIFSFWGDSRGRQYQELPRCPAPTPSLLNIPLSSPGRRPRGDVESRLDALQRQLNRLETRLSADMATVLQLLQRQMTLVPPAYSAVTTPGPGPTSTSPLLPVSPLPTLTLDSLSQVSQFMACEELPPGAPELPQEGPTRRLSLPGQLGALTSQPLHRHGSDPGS

| SMILES | hERG current change (%, negative = inhibition) at 1uM [%] |
| --- | --- |
| Cc1cc(OCc2ccc(F)cc2)nc(-c2ccccc2O)n1 | 11.2 |
| COc1cccc(-c2ccc(NC(=O)C3CCCN(Cc4cnn(C(C)C)c4)C3)cc2)c1 (stereo not shown) | -1.47 |
| Nc1ncc(CCN2CCOCC2)c(-c2ccc(F)cc2)n1 | 0.746 |
| COC(=O)c1cc(-c2cccc(OC)c2)on1 | 8.44 |
| CCCc1cc(=O)[nH]c(SCc2cc(=O)oc3cc(C)c(C(C)C)cc23)n1 | 19.6 |
| C[C@@]12CCC=C[C@H]1[C@H](c1ccc3ccccc3c1)N(Cc1ccccc1)C2=O | 9.47 |
| CCn1nc(C(=O)OCC(=O)N2c3ccccc3CC2C)c2ccccc2c1=O (stereo not shown) | 2.82 |
| CCOC(=O)C(=CNc1cccnc1Oc1ccc(C)c2c1CCC2)C(=O)OCC | -0.256 |
| COc1ccc(S(=O)(=O)N2CCN(c3ncccn3)CC2)cc1OC | 6.04 |
| CCOc1ccc(NC(=S)NC(=O)C2CCCC2)cc1 | 14.5 |
| Cc1ccc(C(=O)C2=C(O)C(=O)N(CCCN(C)C)C23C(=O)N(C)c2ccccc23)o1 (stereo not shown) | 10.8 |
| COc1ccc(OCC(=O)N(Cc2cccs2)C2CCS(=O)(=O)C2)cc1 (stereo not shown) | 13.7 |
| Cc1ccc(S(=O)(=O)NCCC(=O)Nc2nccs2)cc1 | 9.38 |
| COC(=O)c1ccc(COc2ccccc2/C=C(\C#N)C(=O)Nc2ccc(C)cc2)cc1 | 9.46 |
| Cc1cc(C(=O)NC2CCCc3c2cnn3-c2ccc(C)c(C)c2)n(C)n1 (stereo not shown) | 12.3 |
| Cn1c2ccccc2c2nn(-c3ccccc3)c(=O)cc21 | 0.761 |
| O=C(COC(=O)Cn1cnc2ccccc21)NCCc1ccc(Cl)cc1 | -2.42 |
| CN1CCN(C(=O)c2cnn(-c3ccccc3)c2NC(=O)c2ccccc2)CC1 | 10.4 |
| Cc1nn(CC(=O)OCC(=O)c2ccc(OC(F)F)cc2)c(C)c1[N+](=O)[O-] | -0.897 |
| Cc1ccc(C(C)C)c(OCC(=O)NN=C2CCCC2)c1 | 18.2 |
| NNc1nc(-c2ccccc2)nc2sc3c(c12)CCCC3 | 14.5 |
| Cc1ccc2nc(CNC(=O)C3CCC(=O)N(Cc4ccccc4F)C3)cn2c1 (stereo not shown) | 5.18 |

| SMILES | hERG current change (%, negative = inhibition) at 1uM [%] |
| --- | --- |
| CCn1cc(C(=O)N2CCCCC2)c2ccccc21 | 12.9 |
| COc1ccc(CCNC(=O)COC(=O)c2ccc(N3CCCC3=O)cc2)cc1OC | 13.2 |
| O=S(=O)(c1cccc(C(F)(F)F)c1)N1CCC(c2nc3ccccc3[nH]2)CC1 | 7.11 |
| NC(=O)c1ccc(NC(=O)COC(=O)CCN=C2NS(=O)(=O)c3ccccc32)cc1 | 11.1 |
| Cc1ccc(N(C)C(=O)CCNC(=O)Cn2cnc3ccccc3c2=O)cc1C | 10.1 |
| CN(C)c1nc(N)c([N+](=O)[O-])c(NCC2CCCO2)n1 (stereo not shown) | 14.3 |
| CCOc1ccc(C(=O)NC2CCN(S(C)(=O)=O)CC2)cc1 | 4.53 |
| CCOC(=O)c1sc(SCc2ccccc2)c2c1CC(C)(C)CC2=O | 8.46 |
| Cc1cc(C)n2ncc(C(=O)O)c2n1 | 6.38 |
| COc1ccc(CCNC(=O)CSc2nc(C)nc3c2c(=O)n(C)c(=O)n3C)cc1OC | 11 |
| CC1CN(C(=S)Nc2ccc(S(N)(=O)=O)cc2)CC(C)O1 (stereo not shown) | 5.9 |
| O=C(Cc1ccc(-n2c(=O)c3sccc3n(CC(=O)Nc3ccccc3F)c2=O)cc1)NCc1ccco1 | 13 |
| COc1ccc2c(c1)c(C(=O)C(C)N1CCCCC1)c(C)n2C (stereo not shown) | 16.9 |
| COc1cc(NCCC(=O)c2cccs2)c(OC)cc1Cl | 1.26 |
| O=S(=O)(/C=C/c1ccccc1)N1CCN(c2ccc(F)cc2)CC1 | -4.09 |
| Cc1cccc(N(CC(=O)NC2CC3CCC2C3)S(=O)(=O)c2ccccc2)c1 (stereo not shown) | 6.83 |
| CC1CN(S(=O)(=O)c2cccc(C(=O)Nc3ccc4c(c3)CCC4)c2)CC(C)O1 (stereo not shown) | 1.39 |
| CC(=O)CC1(C)OC(N)=C(C#N)C1(C#N)C#N (stereo not shown) | 6.55 |
| Cn1c2ccccc2c2cnn(CC(=O)N3CCCCC3)c(=O)c21 | 1.33 |
| N#CCCn1cc(C(=O)CN2C(=O)NC3(CCCCCC3)C2=O)c2ccccc21 | 8.94 |
| C/C(=N\NC(N)=O)C1CC(CC(C)C)C(=O)O1 (stereo not shown) | 11.8 |
